Measurements from article PMC4336329 (PLoS ONE, 2015).
Screen size: about 310,000 compounds; about 2,200 (0.71%) showed an effect of 50% or more. The effect is printed as a negative number. The list shows a part of the results.

target: human ether-à-go-go-related gene (hERG) potassium channel (human, UniProt Q12809); experiment: primary screen, population patch clamp on CHO cells stably expressing hERG
Sequence (Q12809 whole entry, looked up): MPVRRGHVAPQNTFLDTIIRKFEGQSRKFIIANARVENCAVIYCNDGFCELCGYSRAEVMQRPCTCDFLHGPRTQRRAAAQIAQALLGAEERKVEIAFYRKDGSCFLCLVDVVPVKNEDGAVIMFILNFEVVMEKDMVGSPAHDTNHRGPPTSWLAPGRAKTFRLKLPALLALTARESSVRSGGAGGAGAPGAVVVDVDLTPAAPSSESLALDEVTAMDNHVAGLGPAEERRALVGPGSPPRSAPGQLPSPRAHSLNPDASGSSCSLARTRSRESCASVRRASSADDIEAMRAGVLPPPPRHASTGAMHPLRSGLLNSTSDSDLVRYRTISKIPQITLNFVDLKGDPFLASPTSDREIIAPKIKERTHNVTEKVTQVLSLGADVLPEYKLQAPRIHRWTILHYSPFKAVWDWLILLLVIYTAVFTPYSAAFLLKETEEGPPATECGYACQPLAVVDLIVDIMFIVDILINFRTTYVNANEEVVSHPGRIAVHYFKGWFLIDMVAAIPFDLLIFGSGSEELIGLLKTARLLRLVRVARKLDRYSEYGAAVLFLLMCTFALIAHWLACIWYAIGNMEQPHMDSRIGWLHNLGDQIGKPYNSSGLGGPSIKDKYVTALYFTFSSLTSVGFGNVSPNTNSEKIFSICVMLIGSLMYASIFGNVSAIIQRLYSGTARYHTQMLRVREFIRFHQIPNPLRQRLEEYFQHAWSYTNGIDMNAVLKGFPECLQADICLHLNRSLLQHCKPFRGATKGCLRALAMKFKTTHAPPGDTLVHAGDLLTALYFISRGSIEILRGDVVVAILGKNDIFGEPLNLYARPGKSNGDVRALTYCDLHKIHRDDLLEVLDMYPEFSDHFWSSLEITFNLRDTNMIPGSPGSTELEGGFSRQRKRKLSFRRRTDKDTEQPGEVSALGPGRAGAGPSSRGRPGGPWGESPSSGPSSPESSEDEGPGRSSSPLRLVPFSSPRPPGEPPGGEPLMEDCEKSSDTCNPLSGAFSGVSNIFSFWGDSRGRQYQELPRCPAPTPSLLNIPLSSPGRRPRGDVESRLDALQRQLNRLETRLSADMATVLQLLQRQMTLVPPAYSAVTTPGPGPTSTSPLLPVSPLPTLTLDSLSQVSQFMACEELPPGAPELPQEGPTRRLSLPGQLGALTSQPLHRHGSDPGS

| Compound | hERG current change (%, negative = inhibition) at 1uM [%] |
| --- | --- |
| O=C1ON=C(c2ccccc2)/C1=C/c1ccc(O)cc1 | 16.5 |
| CCCCCCNC(=O)c1ccc(Br)o1 | 5.22 |
| CCn1c(=O)c2c(nc3n2CCCN3c2cccc(C)c2)n(C)c1=O | 3.78 |
| Cc1ccccc1OCC(=O)NNC(=O)CN1C(=O)c2ccccc2C1=O | 5.8 |
| COCCN(C(=O)Nc1ccccc1OC)c1nc2ccccc2s1 | 16.2 |
| Cl.NC(=O)c1c(NC(=O)c2c(F)cccc2F)sc2c1CCN(Cc1ccccc1)C2 | -8.58 |
| CCCCC(CC)CNC(=O)c1ncn[nH]1 (centres unmarked) | 5.25 |
| CC(C)CCNC(=O)C(=O)Nc1cc2c3c(c1)CC(=O)N3CCC2 | 2.41 |
| CCC(C)C(=O)Nc1ccc(OC)cc1[N+](=O)[O-] (centres unmarked) | 13.6 |
| Cc1ccc(CN(C)CC(=O)Nc2cccc([N+](=O)[O-])c2)o1 | -4.14 |
| O=c1c2ccccc2nc(Cc2ccccc2)n1-c1ccc(O)cc1 | 4.55 |
| COC(=O)c1cn(NC(=O)Cc2cccc(C(F)(F)F)c2)c(=O)c2ccccc12 | 0.457 |
| CC(C)Cn1c(SCC(=O)NC2CCCc3ccccc32)nc(O)cc1=O (centres unmarked) | 19.2 |
| Cc1nc2scc(-c3cccs3)c2c(=O)[nH]1 | 11.8 |
| CCOC(=O)c1c(-c2ccc(F)cc2)csc1NC(=O)CCN1C(=O)c2ccccc2C1=O | 7.07 |
| Cn1cccc1C1NC(=O)c2c(sc3c2CCC(C(C)(C)C)C3)N1 (centres unmarked) | 10.1 |
| CC(C)NC(=O)CC(=O)N/N=C/c1c(F)cccc1Cl | 1.37 |
| COC(=O)c1cc(C(=O)OC)cc(N2C(=O)CC(NNC(=O)c3ccc(C)cc3)C2=O)c1 (centres unmarked) | 11.6 |
| CC1CN(c2nc3ccccc3nc2C(C#N)C(=O)OC2CCCCC2)CC(C)O1 (centres unmarked) | 9.53 |
| O=C(CN1C(=O)C2C3C=CC(C3)C2C1=O)OCC(=O)c1ccc(Br)cc1 (centres unmarked) | 9.83 |
| CCCCCCCCCCOC(=O)Cn1c(COc2ccccc2C)[n+](C)c2ccccc21.[Cl-] | -18 |
| Cn1c(=NC(=O)c2cccc([N+](=O)[O-])c2)sc2ccccc21 | 1.11 |
| Cc1cnc(NC(=O)CCN2C(=O)C3CCCCC3C2=O)s1 (centres unmarked) | 12.3 |

| Compound | hERG current change (%, negative = inhibition) at 1uM [%] |
| --- | --- |
| CCC(Oc1ccccc1)C(=O)Nc1ccc(S(=O)(=O)Nc2ncccn2)cc1 (centres unmarked) | 15 |
| O=C(c1cccc(F)c1)N1CCCC(C(=O)N2CCN(c3ccccc3)CC2)C1 (centres unmarked) | 11.2 |
| O=C(CSc1nnc(NC(=O)c2ccco2)s1)Nc1ccc(F)cc1 | 16.2 |
| O=C(CSc1n[nH]c(-c2cccnc2)n1)Nc1ccccc1 | 5.77 |
| Cc1cc(C)nc(NC(=S)NC(=O)c2ccccc2F)n1 | 1.57 |
| S=C1NCCc2ccc(Cl)cc2C1c1ccccc1 (centres unmarked) | -6.86 |
| NC(=O)COc1ccc(Cc2ncc(C(F)(F)F)cc2Cl)cc1 | 8.92 |
| N#CCc1nn(Cc2ccc(F)cc2)c(=O)c2ccccc12 | 4.32 |
| CCc1cccc2c(C(=O)COC(=O)c3ccc([N+](=O)[O-])s3)c[nH]c12 | 7.73 |
| C[C@H]1c2cccc(O)c2C(O)=C2C(=O)C3(O)C(O)=C(C(N)=O)C(=O)[C@@H](N(C)C)[C@@H]3[C@@H](O)[C@@H]21.Cl (some centres unmarked) | 17.8 |
| COc1cc(NC(=O)NCCN2CCN(c3ccc(Cl)cc3)CC2)ccc1C | 7.99 |
| Cn1nnnc1-c1cc(Br)ccc1NC(=O)c1ccccc1 | 9.15 |
| COc1ccc(-n2nc3c(c2NC(=O)c2c(-c4ccccc4Cl)noc2C)CS(=O)(=O)C3)cc1 | -11.7 |
| O=S(=O)(NCCC1=CCCCC1)c1cccc(S(=O)(=O)N2CCOCC2)c1 | 11.3 |
| N#CCCn1cc(C(=O)Nc2cccc(C(=O)O)c2)c(-c2ccc(Cl)cc2)n1 | 13.5 |
| Cc1ccc(C)c2nc3sc(C(=O)O)cc3cc12 | 15.7 |
| CC(C)=CCN1CCN(Cc2cc(F)ccc2-n2nc(C)cc2C)CC1CCO (centres unmarked) | 0.35 |
| CSCC[C@@H](C(=O)NCCCCCCCCCCC(=O)N1CCNCC1)n1cc(CCO)nn1 | 13.9 |
| Cc1ccc(NC(=O)C2CC(O)CN2C(=O)Oc2ccccc2)c(C)c1 (centres unmarked) | 11.5 |
| Cc1ccc(-c2nnc(SCC(=O)N3CCN(c4ccccc4)CC3)o2)cc1 | 11.1 |
| COc1cccc(/C=N/Nc2ncnc(Cl)c2N)c1O | 5.19 |
| CCCCC(=O)NCCc1cc2ccc(OC)cc2[nH]c1=O | 9.42 |
| Cl.O=C(c1ccc(F)cc1)C(CN1CCOCC1)c1ccccc1 (centres unmarked) | 1.11 |

| Compound | hERG current change (%, negative = inhibition) at 1uM [%] |
| --- | --- |
| CCOc1ncccc1C(=O)N1CCCSC1=Nc1ccccc1OC | 9.7 |
| COc1ccc(C(CNC(=O)c2cc3c(s2)CCC(C)C3)N2CCOCC2)cc1 (centres unmarked) | -3.82 |
| CCOc1ccc(CN(C)C(=O)c2cc(S(=O)(=O)N3CCCC3)ccc2C)cc1 | -11.1 |
| O=C(Nc1ccccc1)c1sc2cc(C(F)(F)F)cnc2c1-c1cccs1 | 3.99 |
| Cc1ccc(-c2cc(-c3cccc(F)c3)n[nH]2)c(O)c1 | 12.2 |
| CN(CC(=O)Nc1cccc(F)c1)C(=O)CC1CC2CCC1C2 (centres unmarked) | 4.5 |
| Cn1cc(/C=C(\C(=O)O)C(C(=O)O)=C2CCCCC2)c2ccccc21 | 8.36 |
| C=C(C)CNC(=S)N/N=C/c1ccc([N+](=O)[O-])cc1 | 8.58 |
| O=C(/C=C/Nc1ccc(S(=O)(=O)Nc2cnc3ccccc3n2)cc1)c1ccccc1 | 4.15 |
| CCOC(=O)CSC1=C(C#N)C(=O)NC(c2ccc(OC)c(OC)c2)S1 (centres unmarked) | 13.9 |
| COC(=O)c1n[nH]n(-c2ccc(F)c(Cl)c2)c1=O | 11.5 |
| CCCCn1c2nc3ccccc3nc2c2c(=O)n(-c3ccccc3)cnc21 | 2.17 |
| O=C(NCCN1CCN(Cc2ccc([N+](=O)[O-])cc2)CC1)C(=O)Nc1ccccc1 | -53.8 |
| COc1ccc(OCc2nc(N)nc(Nc3cccc(C)c3C)n2)cc1 | 13.9 |
| Cc1onc(-c2ccccc2)c1C(=O)Nc1cccc(C#N)c1 | 4.13 |
| COc1ccc(CCNC(=O)COc2coc(CN3c4ccccc4CC3C)cc2=O)cc1OC (centres unmarked) | 14.4 |
| Cc1ccc(S(=O)(=O)N2C(=O)c3cccc4cccc2c34)cc1 | 13.5 |
| CC(Oc1cccc2cccnc12)C(=O)N/N=C/c1ccccc1 (centres unmarked) | 6.71 |
| O=C(Nc1ccc(N2CCCCC2)cc1)C(Cl)c1ccccc1 (centres unmarked) | 11.4 |
| CCn1cc(Br)c(C(=O)NN)n1 | 14.2 |
| Cc1ccc(N2CC(C(=O)OCC(=O)c3ccc(F)cc3)CC2=O)cc1 (centres unmarked) | 13.8 |
| COc1ccc(NC(=O)CCCC(=O)c2ccccc2)c(OC)c1 | 10.7 |
| COc1ccc(/C=N/n2cc(-c3ccc(OC)cc3)nc2N)cc1 | -3.68 |

| Compound | hERG current change (%, negative = inhibition) at 1uM [%] |
| --- | --- |
| CN(CCCC1CCCC1)C(=O)CCc1nnc(-c2ccccc2)o1 | 12.6 |
| CN(C(=O)c1ccncc1)C1CCS(=O)(=O)C1 (centres unmarked) | 1.86 |
| C[C@]12CC[C@H](OS(=O)(=O)[O-])CC1=CC[C@@H]1[C@@H]2CC[C@]2(C)C(=O)CC[C@@H]12.O.[Na+] | 17 |
| Cn1c(SCC(=O)c2cc(Cl)c(Cl)s2)nnc1-c1ccco1 | -0.787 |
| CC(=O)N1CC=CC1(CC(C)C)C(=O)NCCc1c[nH]c2ccccc12 (centres unmarked) | 7.65 |
| COC(=O)c1nnn(-c2nonc2N)c1CSc1nnc(N)s1 | 15.3 |
| Cc1ccc(NS(=O)(=O)c2ccc(-c3cnc(C4CC4)o3)cc2)c(C)c1 | 4.7 |
| Cc1nc([N+](=O)[O-])c(SCC(N)=O)n1Cc1ccccc1 | 13.2 |
| COc1ccc(-c2c(C)oc3cc(O)cc(O)c3c2=O)cc1OC | 1.63 |
| O=C(c1ccc(NC(=S)NCc2ccc(Cl)cc2)cc1)N1CCCCC1 | 3.84 |
| Cn1nc(Oc2ncc(C(F)(F)F)cc2Cl)cc1C(F)(F)F | 4.88 |
| COc1ccc(CCC(=O)NNC(=O)Nc2cc(Cl)ccc2C)cc1 | 4.07 |
| O=C1N(c2ccccc2C(F)(F)F)O[C@]1(c1ccccc1)C1CCCCC1 | -6.55 |
| CCCn1nc(CC(=O)O)c2ccccc2c1=O | 3.22 |
| Cc1ccccc1CSc1nnc(-c2cccs2)n1Cc1ccco1 | 6.88 |
| COc1ccccc1NS(=O)(=O)c1cccc(C(=O)N/N=C2\CC(=O)CC(C)(C)C2)c1 | -3.42 |
| CC(C)CNC(=S)NNC(=O)c1csc2c1CCCC2 | 2.91 |
| Cc1ccc(S(=O)(=O)N2CC3CC(C2)c2cccc(=O)n2C3)cc1 (centres unmarked) | -6.88 |
| CN(C)S(=O)(=O)c1cccc(COC(=O)c2ccc(Cl)cc2O)c1 | 10.5 |
| C=C(C)CC1Nc2ccccc2NC1CC(=C)C (centres unmarked) | 11.7 |
